Key:
[1] = tested on: HeLa cells / K631 1C CTL clone; assay: CTL assay (IFN-γ ELISA), presentation by transfected HeLa cells
[2] = target: HLA-A*03:01 complex on the cell surface of T2 (Homo sapiens, UniProt P04439); assay: HLA-A*03:01-peptide binding affinity by flow cytometry, T2 cells; details: HLA-A*03:01-transfected T2, different peptide concentrations, FACS (MFU)
[3] = tested on: HLA-A*03:01 complex on the cell surface of HeLa; assay: HLA-A*03:01-peptide binding affinity by flow cytometry, HeLa cells; set-up: species or system human; details: HLA-A*03:01-transfected HeLa, pulsed with 100 μM peptide, FACS (MFU)

CC[C@H](C)[C@H](NC(=O)[C@H]([C@@H](C)CC)N(C)C(C)=O)C(=O)N[C@H](C(=O)N[C@@H](CC(C)C)C(=O)[C@@]1(C)CO1)[C@@H](C)O [epoxomicin, reference compound]
effect on gp100mel47–52/40–42 presentation, epoxomicin ([1]; epoxomicin 250 nM, 2 hrs, E:T 1:1 p = 0.002, 2:1 p = 0.001, 4:1 and 8:1 p < 0.001): Significant differences

[QLYPEW][RTK] [gp100^mel47–52/40–42]
binding to HLA-A*03:01 complex on T2 [2]: bound the HLA-A*03:01 complex | condensation in cellulo / presentation from HA-Ub/gp100mel40–52 ([1]; HeLa HLA-A*03:01+ transfected with HA-Ub/gp100mel40–52, K631 1C CTL, IFN-γ ELISA, E:T 1:1 p = 0.003, 2:1 p = 0.050): proteasomes could indeed also perform a condensation reaction in cellulo | presentation from full-length gp100mel, HeLa ([1]; HeLa transfected with HLA-A*03:01 and gp100mel-myc/His, proteasome-dependent): efficiently presented | binding to HLA-A*03:01 complex on HeLa [3]: bound the HLA-A*03:01 complex

From paper PMC4822137, “Proteasomes generate spliced epitopes by two different mechanisms and as efficiently as non-spliced epitopes” (Scientific Reports, 2016)
